At least one compound was matched to its structure with a doubt left.
Test system: Huh7/Rep-Feo HCV replicon (HCV RNA replication)
Type: cell-based, Hepatitis C virus (strain HCV—N, genotype 1b)
Conditions: known bioactives library; approximately 10-50 μM, most at 33 μM
Text: Development of the Huh7/Rep-Feo replicon assay. […] This replicon was derived from a chimpanzee infectious clone (strain HCV—N, genotype 1b). In this replicon, the structural genes have been replaced by a reporter gene. The chimeric reporter gene Feo encodes the firefly luciferase protein fused in-frame with neomycin phosphotransferase. This Huh7/Rep-Feo cell supports high levels of autonomous HCV RNA replication because it was derived from the HCV—N strain, which carries an adaptive mutation in NSSA that confers highlevel replication in tissue culture. Furthermore, the level of luciferase correlates well with levels of HCV RNA production, so that luciferase can be used as a reliable surrogate marker for HCV replication. The use of luciferase as a reporter permits quantitative and highthroughput detection of HCV replication levels. The specific use of firefly luciferase makes this replicon especially well-suited for automation, because the luciferase reagent can be added directly to the cell culture system prior to signal detection without the need for cell lysis, washing, or aspiration.
HCV Replicon System-Primary Screening. […] Briefly, this replicon harbors a subgenomic HCV genotype 1b sequence, fused to firefly luciferase, stably replicating under neomycin selection. Cells were propagated in Dulbecco's Modified Eagle's medium (DMEM) containing 10% fetal bovine serum (FBS) supplemented with 1% penicillin-streptomycin, and 500 μg of Geneticin (Invitrogen Corp., Carlsbad, Calif.)/mL. Cells were cultured in a 37° C., 5% CO2-humidified incubator for all experiments. To decrease day-today variability in the assay, a large homogenous population of subconfluent cells was passaged so that a similar lot of cells could be used throughout the HTS assay.
Primary Screening-HTS. […] The luminescent signal from each plate was detected using an automated plate reader (Perkin-Elmer Envision 1; Wellesley, Mass.). […] As a counter-screen, cell viability was assessed using the CellTiterGlo Luminescent cell viability assay (Promega) following the manufacturer's instructions. […]

Compound	primary screen hit result (in words)
COc1ccc2cc1Oc1ccc(cc1)C[C@H]1c3cc(c(OC)cc3CCN1C)Oc1c(OC)c(OC)cc3c1[C@H](C2)N(C)CC3 [tetrandrine, reference compound]	Antiviral
C[C@]12CC[C@@H]3c4ccc(O)cc4CC[C@H]3[C@@H]1CCC2=O [estrone, reference compound]	Proviral
COC(=O)C1=C(C)NC(C)=C(C(=O)OC)C1c1ccccc1[N+](=O)[O-] [nifedipine, reference compound]	did not exhibit antiviral activity

Test system: OR6 cells harboring full-length genotype 1b HCV replicon ORN/C-5B/KE (HCV RNA replication)
Type: cell-based, Hepatitis C virus (strain HCV—O
Conditions: 0.1-100 μM, 48 hours
Text: (§1) HCV Replicon System-Secondary Assays. For validation, OR6 cells stably harboring the full-length genotype 1 replicon, ORN/C-5B/KE9 were used to examine compound activity in a more authentic viral polyprotein context. This replicon was derived from the 1B-2 strain (strain HCV—O, genotype 1b), in which the Renilla luciferase gene is introduced as a fusion protein with neomycin to facilitate the monitoring of HCV replication. This construct contains a tissue culture adaptive mutation in the NS3 region. Cells were cultured in an identical manner to the Huh7/Rep-Feo cells.
Secondary Assays-Hit Validation. Several hits from primary HTS, as well as functionally related compounds, were purchased from Sigma (St. Louis, Mo.), Calbiochem (San Diego, Calif.), and Microsource (Gaylordsville, Conn.). […] Ten mM of stock solutions of the individual compounds to be tested was prepared in the appropriate solvent (DMSO, ethanol, or H2O, according to the manufacturer's information) and stored at −20° C. Cells were seeded into 96-well plates at a density of 2000 cells/well in 100 μL of medium. The cells were incubated for 24 hours at 37° C. to obtain the optimal level of adherence. Solutions of candidate hit compounds were added to wells to achieve final concentrations of 0.1, 1, 10, 50, and 100 μM. The final concentration of DMSO or ethanol in every well was 1% or less by volume. Mock solutions were used as a negative control. PEG-IFN and ribavirin were used as positive controls at various concentrations, alone and in combination. The plates were then incubated at 37° C. with 5% CO2 for 48 hours before they were analyzed. Luminescent signal was generated using the Renilla luciferase assay kit (Promega) according to the manufacturer's instructions. Signal was then detected using a LumiCount (Packard BioScience Company) luminometer. Cell viability was assessed using CellTiter-Glo (Promega), following the manufacturer's instructions. All experiments were performed in triplicate.
Secondary Assays-Data Analysis. Values were presented as a percentage of mock treated control, which was arbitrarily set at 100%. Data were expressed as the mean (±) SD. […] Synergy calculations were performed using CalcuSyn (Biosoft; Cambridge, England).
as §1, with “System—Secondary Assays:” for “System-Secondary Assays.”, “For replicon” for “For”, “ORN/C-5B/KE” for “ORN/C-5B/KE9”, “(Burke J. Am. Chem. Soc. (2004) 126:14095-14104).” for “to examine compound activity in a more authentic viral polyprotein context.”, “the Neomycin resistance cassette” for “neomycin”
Secondary Assays—Hit Validation: 10 mM of stock solutions of the individual compounds to be tested were prepared in DMSO and stored at −20° C. Cells were seeded into 96-well plates at a density of 2,000 cells/well in 100 μl of medium. The cells were incubated for 24 hours at 37° C. to obtain the optimal level of adherence. Solutions of candidate hit compounds were added to wells to achieve varying final concentrations between 0.01 and 100 μM. The final concentration of DMSO or ethanol in every well was 1% or less by volume. Mock solutions were used as a negative control. Peginterferon-alfa-2b (PEG-Intron; Schering Corp.; Kenilworth, N.J.) and ribavirin (Sigma; St. Louis, Mo.) were used as positive controls at various concentrations, alone and in combination. The plates were then incubated at 37° C. with 5% CO2 for 48 hours before they were analyzed. Luminescent signal was generated using the Renilla luciferase assay kit (Promega; Madison, Wis.) according to the manufacturer's instructions. Signal was then detected using a LumiCount™ (Packard BioScience Company; Downers Grove, Ill.) luminometer.

Compound	proviral effect on HCV replication (in words)
C[C@H]1C[C@@H]2[C@H]([C@@H](O)C[C@@]3(C)[C@H]2CC[C@]3(O)C(=O)CO)[C@@]2(C)C=CC(=O)C=C12 [methylprednisolone]	increased HCV replication
CCOC(=O)C(C)(C)Oc1ccc(Cl)cc1 [Clofibrate]	did not show a proviral effect
Cc1c(C)c2c(c(C)c1O)CCC(C)(COc1ccc(CC3SC(=O)NC3=O)cc1)O2 (stereo not shown) [Troglitazone, troglitazone]	proviral activity at 1 and 10 μM
C[C@@H]1C[C@H]2[C@@H]3CCC4=CC(=O)C=C[C@]4(C)[C@@]3(F)[C@@H](O)C[C@]2(C)[C@@]1(O)C(=O)CO [dexamethasone]	increased HCV replication

Same assay, conditions: 48 hours

Compound	antiviral activity (in words)
CC[C@H](C)C(=O)O[C@H]1C[C@H](O)C=C2C=C[C@H](C)[C@H](CC[C@@H](O)C[C@@H](O)CC(=O)O)[C@H]21 [Pravastatin, pravastatin]	very weak antiviral activity
CCC(C)(C)C(=O)O[C@H]1C[C@@H](C)C=C2C=C[C@H](C)[C@H](CC[C@@H]3C[C@@H](O)CC(=O)O3)[C@H]21 [simvastatin]	strong antiviral effects
CC(C)n1c(/C=C/C(O)CC(O)CC(=O)O)c(-c2ccc(F)cc2)c2ccccc21 (stereo not shown) [fluvastatin]	strong antiviral effects
